The results in this text go back to the RNAGym collection of RNA variant scans (doi:10.7554/elife.90254).

B1: LINE1-mini (parent)
chain: GGCAGAGCUCAACACAGCGUGGCAAAGUGGCUGUGGCUAGACUGCC

Read counts are not given, so values of variants with three or more changes are uncertain.

The variants in the series derive from B1. Description: self-cleavage, relative activity (ratio to wild type); higher = more cleavage; in vitro, sequencing; the parent is a self-cleaving ribozyme.
In the case of A4G C10G G36U, the self-cleavage came to 0.01. Under A4G C8U A25C G30A G35A C42G stands 0.23; under A4G G22U C31U U43G, 0. Next, A4G C13G A24G G27C U43A: 0.19; A4U A6G G19A: 0.04; A4G C10U A12C C15G G17U G19U: 0.02. With A4G G22U C23G, the self-cleavage is 1.36. With A4G G35A G44U, the self-cleavage worked out at 0.06.

As to A4G A25U U32C G40A U43C, the self-cleavage was found to be 0.18. Under A4G A16U U38G stands 0.1. Next, A4G C18G A26G G30C: 1.28; A4G G7A C31G: 0.07; A4G C13U G33A U38G: 0.03. Take A4G G17U G44U: the self-cleavage turned out to be 0.03. Under A4G U9C C10A G21A C31A G36C C37A stands 0.01; under A4G G5U A39G A41U U43C, 0.01; under A4G G19C G33C C37A, 0.02. Under A4G A25C U32C C37U stands 0.04; under A4G C10A C23A A25U G40U, 0.01. With A4G G33A C45A, the self-cleavage came out at 0.05. Under A4G C37G A39C C46U stands 0.04. With A4G G7C G29U, the self-cleavage was determined as 0.16. Next, A4G G7A G36C A39C G44A C46A: 0.11; A4G C18U G40C: 0.01; A4G G7U A14C C31A U38A A39G C42A: 0.03. With A4G A24C U43A, the self-cleavage came out at 0.

As to A4G U9A U32G, the self-cleavage came out at 0.03. Next, A4U A6C U9G C18G C23A C46A: 0.48. Next, A4G G35U G44C: 0.11.

Regarding A4G G5U A11C G22U G44A, the self-cleavage turned out to be 0.05. In the case of A4G G7A G36C, the self-cleavage was determined as 0.12. As to A4G G7A C13U A16U G22U G30U C31G, the self-cleavage was determined as 0.09.

Turning to A4G C10G C18G U38G C46G, the self-cleavage is 0. Under A4G C10A A12G U28A stands 0.06; under A4G G7U C10A C31A, 0.15; under A4G G7A U38C G44C, 0.21.

Turning to A4G C18A C23A A26C G44C, the self-cleavage amounted to 0.01. Next, A4G G5C U32C G36C: 0.05; A4G U20A U32C: 0.09. As to A4G C15A U34A C42G, the self-cleavage amounted to 0.07.

A4G C8A G27U U32A: the self-cleavage came to 0.23. Under A4G A24U C31A stands 0.12; under A4U A6U G21U U28G G29U, 0.06. Next, A4G C18A G27U G40A C42U G44C C45G: 0. Under A4G C15U G21U stands 0.47; under A4G G5U C18G G29A C45G, 0.04.

For A4U A6U C23U G27A, the self-cleavage stood at 0.07. Under A4G G19A C23U U28C G40U stands 0.15; under A4G C23A C31U G44A C46G, 0.13; under A4G C13U G30C C37U G40U, 0.03. Under A4G G7C U43A stands 0.03; under A4G G7A G27A, 0.35. For the variant A4G C13A C15G G27U G44U, the self-cleavage was 0.03. Next, A4G C8A C10G G22A: 0.02; A4G C18U A24C A25U: 0.07; A4G G5A C15G: 0.03.

As to A4G A39U A41C, the self-cleavage was determined as 0.09. For the variant A4G C13U A24G G33U, the self-cleavage worked out at 0.08.

As to A4G C18U U38A, the self-cleavage is 0.7. Next, A4U A6G A12C U32A U43A: 0.03; A4U A6G U9C G29A C42G C45A C46A: 0.02; A4G A24C G30U A39U C46A: 0.03.

A4G G7A C23G C31G G44C: the self-cleavage stood at 0.02.

For the variant A4G G22A C31U, the self-cleavage was determined as 0.06. Next, A4G U28G C37U U38A G44A: 0.03. Take A4G U9G G30C U34C C42A: the self-cleavage amounted to 0.01. As to A4G C13A G27U C37U, the self-cleavage was 0.08.

Turning to A4U A6G C46A, the self-cleavage was 0.5. Under A4G C42U C45G stands 0. Under A4G C42U C45U stands 0.06; under A4G G19C U34A C45U, 0.04. For A4G C18A G29U, the self-cleavage came out at 0.3. As for A4G G27A C46A, the self-cleavage came to 1.43. Under A4G C10G A14C A16C stands 0.01. On to A4G G7A C10U C15A G19A U20G C31G, for which the self-cleavage was 0.06. Next, A4G G21U G40C A41U: 0.09; A4G G7U C10A G17C G44U: 0.03. In the case of A4G C10A C15A G27A, the self-cleavage amounted to 0.08.

Consider A4G C8G U9A G21A G29U U34C, for which the self-cleavage was 0.16. Next, A4G C37A C45U: 0.03; A4G G5A U9C G40U: 0.03; A4G G5A C10A G21A A24C G27A C42U U43G: 0.01. Under A4G C15U C18A G29C stands 0.05; under A4G G27A C45U C46U, 0.31. Next, A4G G7U C37A U43A: 0.35; A4G G29C G40U: 0.03; A4G G5C A24C G36C: 0.05. Take A4G G22A A25U: the self-cleavage stood at 2.2. Next, A4G C8A C10G C46A: 0; A4G C18U C31A G33A C42U U43G: 0.02. Under A4G G19A G27A stands 0.09; under A4G A16U C37U, 0.15; under A4G G22A U32A C42A, 0.08. Next, A4G C8A U43A: 0.46; A4G G27U G36U: 0.1; A4G A26C G27C G40A: 0.09. Take A4G C13A U20A U34C A41G C46A: the self-cleavage worked out at 0.03. As for A4G G22C U38C, the self-cleavage was 0.27. Next, A4G G21C G30A U43G: 0. Under A4G G19A A24C A25U C42G U43G stands 0.01; under A4G C8U C18G G22A C31U, 0.05. As to A4G C10A C15A U28G, the self-cleavage is 0.02. Take A4G U9C U43C: the self-cleavage was found to be 0. Under A4G U9A C15G G19A A25G U38G G44A stands 0.05; under A4G G7U G35U, 0.13; under A4G G5C A41U, 0.14. Under A4G C37A C42U stands 0.38. Under A4G G27C G36C stands 0.08; under A4G U9G C18G U32C A41G, 0.13. In the case of A4G C8U G33C U38G A41U, the self-cleavage was found to be 0.1. Under A4G A24U U32A G33U stands 0.05; under A4G G17U A26G G44C, 0.06. Next, A4G G19U C31U C42G: 0.04; A4G G19U C37A G40U: 0.44. In the case of A4G C8A C13U A16U C45U, the self-cleavage turned out to be 0.2.

On to A4G C15G G40U, for which the self-cleavage amounted to 0.05. Next, A4G A39G A41G: 0.02; A4G G21U C46U: 0.62; A4G C10G C46U: 0.07. Under A4G C23G C42G stands 0.14; under A4G C15U G19U G33C C45U, 0.02. In the case of A4G C10A A25C U28A C46A, the self-cleavage was determined as 0.01.

For the variant A4G C8A A16C C18U A24U U28C A41G C42A G44U, the self-cleavage was 0.17.

Consider A4G G29U G40A, for which the self-cleavage was found to be 0.07. Under A4G C8U C13U G30U G35A stands 0.77; under A4G C8G G17A C31U G35A, 0.11; under A4G C10A C31U G40U, 0.

On to A4U A6C U38C, for which the self-cleavage is 0.02. Under A4G C10A U38A U43C stands 0.03. Next, A4G G7A U9G: 0.07. Turning to A4G G5C G30A G40A, the self-cleavage stood at 0.04. Next, A4G G5U C13A A16C U28G U38G A41C: 0.26. For the variant A4G G21C C23U C31G U32C, the self-cleavage was 0.18.

As for A4U A6U G21U G29A U32G, the self-cleavage was determined as 0.03. Consider A4G G17U C45A, for which the self-cleavage was determined as 0.06. Under A4G C15A A41U stands 0.11; under A4G G5C A6G C10U A16U G29U G33A G35U, 0.01; under A4G C8G C15U G19U, 0.08. For A4G G36U C46G, the self-cleavage turned out to be 0.02. Next, A4G C10U A14U G35U: 0.17; A4U A6C C31A G36U: 0.02; A4G C13G C18G: 0.13. Under A4G G7C U9A G19C G21C G22U C31U stands 0.04; under A4U A6U C10U G22U G40U, 0.03; under A4G G21U G35U, 0.12. Under A4G C8U C15U G29C C37G stands 0.04; under A4G G5U A11U G36A A41U C45G, 0.01; under A4G A39G G40U C46G, 0.35.

Consider A4G C10A G19U G40A, for which the self-cleavage worked out at 0.01. Next, A4G G30C A41G: 0.61; A4G G5C A12G: 0.12. Take A4G C23G U43A: the self-cleavage came to 0.45.

Regarding A4G C13A G22C A25G G27C C37U A39C, the self-cleavage was found to be 0. Under A4G G29U U32A G40A stands 0.03; under A4G C8G C18G G30U A39C, 0.06. As to A4G G22A G30U, the self-cleavage amounted to 0.15. Under A4G G21U G29A G30U stands 1.17; under A4G G7U A26U, 0.09; under A4G A26U A39C G40U, 0.05. Under A4G C10U G36A G44A stands 0.07. For A4G G5A G22C U32A C46A, the self-cleavage worked out at 0.01. In the case of A4G G5A C10U C37A, the self-cleavage was 0.03. On to A4G G7U C10A A39G, for which the self-cleavage came out at 0.01. Next, A4G A24G C31U: 0.03; A4G U9G A11G: 0.11; A4U A6G U9G U20G C37G: 0.01. Next, A4G G21U A41U: 0.49.
